# Reference: the supplement of paper PMC8728848
# This is one part of the list.
# B1: GSL-I-B4 (Griffonia simplicifolia) (protein)
# chain: NFWSDVEDSIIFQGDANTTAGTLQLCKTNQYGTPLQWSAGRALYSDPVQLWDNKTESVASFYTEFTFFLKITGNGPADGLAFFLAPPDSDVKDAGEYLGLFNKSTATQPSKNQVVAVEFDTWTNPNFPEPSYRHIGINVNSIVSVATKRWEDSDIFSGKIATARISYDGSAEILTVVLSYPDGSDYILSHSVDMRQNLPESVRVGISASTGNNQFLTVYILSWRFSSNLQSTSVKAAMEPEITRTVV
# Tests used:
# Experiment in all cases: glycan array binding signal (z-score within array); higher = stronger binding
# Details in all cases: glycan notation: IUPAC condensed, linker removed
# [1] = molecular target: Neu5Ac(a2-3)Gal(b1-4)GlcNAc(b1-6)GalNAc
# In short: (§1)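 From the Consortium for Functional Glycomics database, 3228 arrays were curated, keeping only those whose protein sequence was available. Binding is given as a within-array Z-score averaged across arrays sharing a protein sequence and across linkers. Negative Z-scores can be read as non-binding.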
# [2] = molecular target: Neu5Ac(a2-3)Gal(b1-4)GlcNAc(b1-6)[Gal(b1-3)]GalNAc
# In short: as §1
# [3] = molecular target: Neu5Ac(a2-3)Gal(b1-4)GlcNAc(b1-6)[Neu5Ac(a2-3)Gal(b1-3)]GalNAc
# In short: as §1
# [4] = molecular target: Neu5Ac(a2-3)Gal(b1-4)GlcNAc6S
# In short: as §1
# [5] = molecular target: Neu5Ac(a2-3)Gal(b1-4)[Fuc(a1-3)]GlcNAc
# In short: as §1
# [6] = molecular target: Neu5Ac(a2-3)Gal(b1-4)[Fuc(a1-3)]GlcNAc(b1-2)Man
# In short: as §1
# [7] = molecular target: Neu5Ac(a2-3)Gal(b1-4)[Fuc(a1-3)]GlcNAc(b1-3)Gal
# In short: as §1
# [8] = molecular target: Neu5Ac(a2-3)Gal(b1-4)[Fuc(a1-3)]GlcNAc(b1-3)Gal(b1-4)GlcNAc
# In short: as §1
# [9] = molecular target: Neu5Ac(a2-3)Gal(b1-4)[Fuc(a1-3)]GlcNAc(b1-3)Gal(b1-4)[Fuc(a1-3)]GlcNAc(b1-3)Gal(b1-4)[Fuc(a1-3)]GlcNAc
# In short: as §1
# [10] = molecular target: Neu5Ac(a2-3)Gal(b1-4)[Fuc(a1-3)]GlcNAc(b1-3)GalNAc
# In short: as §1
# [11] = molecular target: Neu5Ac(a2-3)Gal(b1-4)[Fuc(a1-3)]GlcNAc(b1-6)[Gal(b1-3)]GalNAc
# In short: as §1
# [12] = molecular target: Neu5Ac(a2-3)Gal(b1-4)[Fuc(a1-3)]GlcNAc(b1-6)[Neu5Ac(a2-3)Gal(b1-3)]GalNAc
# In short: as §1
# [13] = molecular target: Neu5Ac(a2-3)Gal(b1-4)[Fuc(a1-3)]GlcNAc6S
# In short: as §1
# [14] = molecular target: Neu5Ac(a2-3)Gal6S(b1-4)GlcNAc
# In short: as §1
# [15] = molecular target: Neu5Ac(a2-3)Gal6S(b1-4)[Fuc(a1-3)]GlcNAc
# In short: as §1
# Neu5Ac(a2-3)GalNAc = molecular target: Neu5Ac(a2-3)GalNAc
# In short: as §1
# [16] = molecular target: Neu5Ac(a2-3)GalNAc(b1-4)GlcNAc
# In short: as §1
# [17] = molecular target: Neu5Ac(a2-3)[GalNAc(b1-4)]Gal(b1-4)Glc
# In short: as §1
# [18] = molecular target: Neu5Ac(a2-3)[GalNAc(b1-4)]Gal(b1-4)GlcNAc
# In short: as §1
# [19] = molecular target: Neu5Ac(a2-3)[GalNAc(b1-4)]Gal(b1-4)GlcNAc(b1-3)GalNAc
# In short: as §1
# [20] = molecular target: Neu5Ac(a2-3)[Neu5Ac(a2-6)]GalNAc
# In short: as §1
# Neu5Ac(a2-6)Gal = molecular target: Neu5Ac(a2-6)Gal
# In short: as §1
# [21] = molecular target: Neu5Ac(a2-6)Gal(b1-3)GlcNAc(b1-3)[Gal(b1-4)GlcNAc(b1-6)]Gal(b1-4)Glc
# In short: as §1
# Neu5Ac(a2-6)Gal(b1-4)Glc = molecular target: Neu5Ac(a2-6)Gal(b1-4)Glc
# In short: as §1
# [22] = molecular target: Neu5Ac(a2-6)Gal(b1-4)GlcNAc
# In short: as §1
# [23] = molecular target: Neu5Ac(a2-6)Gal(b1-4)GlcNAc(b1-2)Man
# In short: as §1
# [24] = molecular target: Neu5Ac(a2-6)Gal(b1-4)GlcNAc(b1-2)Man(a1-3)Man(b1-4)GlcNAc(b1-4)GlcNAc
# In short: as §1
# [25] = molecular target: Neu5Ac(a2-6)Gal(b1-4)GlcNAc(b1-2)Man(a1-3)[Gal(b1-4)GlcNAc(b1-2)Man(a1-6)]Man(b1-4)GlcNAc(b1-4)GlcNAc
# In short: as §1
# [26] = molecular target: Neu5Ac(a2-6)Gal(b1-4)GlcNAc(b1-2)Man(a1-3)[GlcNAc(b1-2)Man(a1-6)]Man(b1-4)GlcNAc(b1-4)GlcNAc
# In short: as §1
# [27] = molecular target: Neu5Ac(a2-6)Gal(b1-4)GlcNAc(b1-2)Man(a1-3)[GlcNAc(b1-4)][Neu5Ac(a2-6)Gal(b1-4)GlcNAc(b1-2)Man(a1-6)]Man(b1-4)GlcNAc(b1-4)GlcNAc
# In short: as §1
# [28] = molecular target: Neu5Ac(a2-6)Gal(b1-4)GlcNAc(b1-2)Man(a1-3)[Man(a1-6)]Man(b1-4)GlcNAc(b1-4)GlcNAc
# In short: as §1
# [29] = molecular target: Neu5Ac(a2-6)Gal(b1-4)GlcNAc(b1-2)Man(a1-3)[Neu5Ac(a2-3)Gal(b1-4)GlcNAc(b1-2)Man(a1-6)]Man(b1-4)GlcNAc(b1-4)GlcNAc
# In short: as §1
# [30] = molecular target: Neu5Ac(a2-6)Gal(b1-4)GlcNAc(b1-2)Man(a1-3)[Neu5Ac(a2-6)Gal(b1-4)GlcNAc(b1-2)Man(a1-6)]Man(b1-4)GlcNAc(b1-4)GlcNAc
# In short: as §1
# [31] = molecular target: Neu5Ac(a2-6)Gal(b1-4)GlcNAc(b1-2)Man(a1-3)[Neu5Ac(a2-6)Gal(b1-4)GlcNAc(b1-2)Man(a1-6)]Man(b1-4)GlcNAc(b1-4)[Fuc(a1-6)]GlcNAc
# In short: as §1
# [32] = molecular target: Neu5Ac(a2-6)Gal(b1-4)GlcNAc(b1-2)Man(a1-6)Man(b1-4)GlcNAc(b1-4)GlcNAc
# In short: as §1
# [33] = molecular target: Neu5Ac(a2-6)Gal(b1-4)GlcNAc(b1-2)Man(a1-6)[Gal(b1-4)GlcNAc(b1-2)Man(a1-3)]Man(b1-4)GlcNAc(b1-4)GlcNAc
# In short: as §1
# [34] = molecular target: Neu5Ac(a2-6)Gal(b1-4)GlcNAc(b1-2)Man(a1-6)[GlcNAc(b1-2)Man(a1-3)]Man(b1-4)GlcNAc(b1-4)GlcNAc
# In short: as §1
# [35] = molecular target: Neu5Ac(a2-6)Gal(b1-4)GlcNAc(b1-2)Man(a1-6)[Man(a1-3)]Man(b1-4)GlcNAc(b1-4)GlcNAc
# In short: as §1
# [36] = molecular target: Neu5Ac(a2-6)Gal(b1-4)GlcNAc(b1-2)[Neu5Ac(a2-6)Gal(b1-4)GlcNAc(b1-4)]Man(a1-3)[GlcNAc(b1-4)][Neu5Ac(a2-6)Gal(b1-4)GlcNAc(b1-2)[Neu5Ac(a2-6)Gal(b1-4)GlcNAc(b1-6)]Man(a1-6)]Man(b1-4)GlcNAc(b1-4)GlcNAc
# In short: as §1
# [37] = molecular target: Neu5Ac(a2-6)Gal(b1-4)GlcNAc(b1-2)[Neu5Ac(a2-6)Gal(b1-4)GlcNAc(b1-4)]Man(a1-3)[GlcNAc(b1-4)][Neu5Ac(a2-6)Gal(b1-4)GlcNAc(b1-4)Man(a1-6)]Man(b1-4)GlcNAc(b1-4)GlcNAc
# In short: as §1
# [38] = molecular target: Neu5Ac(a2-6)Gal(b1-4)GlcNAc(b1-2)[Neu5Ac(a2-6)Gal(b1-4)GlcNAc(b1-6)]Man(a1-6)[Neu5Ac(a2-6)Gal(b1-4)GlcNAc(b1-2)Man(a1-3)][GlcNAc(b1-4)]Man(b1-4)GlcNAc(b1-4)GlcNAc
# In short: as §1
# [39] = molecular target: Neu5Ac(a2-6)Gal(b1-4)GlcNAc(b1-3)Gal(b1-3)GlcNAc
# In short: as §1
# [40] = molecular target: Neu5Ac(a2-6)Gal(b1-4)GlcNAc(b1-3)Gal(b1-4)GlcNAc
# In short: as §1
# [41] = molecular target: Neu5Ac(a2-6)Gal(b1-4)GlcNAc(b1-3)Gal(b1-4)GlcNAc(b1-2)Man(a1-3)[Neu5Ac(a2-6)Gal(b1-4)GlcNAc(b1-3)Gal(b1-4)GlcNAc(b1-2)Man(a1-6)]GalNAc
# In short: as §1
# [42] = molecular target: Neu5Ac(a2-6)Gal(b1-4)GlcNAc(b1-3)Gal(b1-4)GlcNAc(b1-3)Gal(b1-4)GlcNAc
# In short: as §1
# [43] = molecular target: Neu5Ac(a2-6)Gal(b1-4)GlcNAc(b1-3)Gal(b1-4)GlcNAc(b1-3)Gal(b1-4)GlcNAc(b1-2)Man(a1-3)[Neu5Ac(a2-6)Gal(b1-4)GlcNAc(b1-3)Gal(b1-4)GlcNAc(b1-3)Gal(b1-4)GlcNAc(b1-2)Man(a1-6)]GalNAc
# In short: as §1
binder,measurement,setting,value
B1,glycan array binding signal (z-score),[1],-0.161
same,glycan array binding signal (z-score),[2],-0.23
same,glycan array binding signal (z-score),[3],-0.212
same,glycan array binding signal (z-score),[4],-0.193
same,glycan array binding signal (z-score),[5],-0.175
same,glycan array binding signal (z-score),[6],-0.187
same,glycan array binding signal (z-score),[7],-0.207
same,glycan array binding signal (z-score),[8],-0.174
same,glycan array binding signal (z-score),[9],-0.15
same,glycan array binding signal (z-score),[10],-0.152
same,glycan array binding signal (z-score),[11],-0.059
same,glycan array binding signal (z-score),[12],-0.109
same,glycan array binding signal (z-score),[13],-0.176
same,glycan array binding signal (z-score),[14],-0.143
same,glycan array binding signal (z-score),[15],-0.238
same,glycan array binding signal (z-score),Neu5Ac(a2-3)GalNAc,-0.158
same,glycan array binding signal (z-score),[16],-0.157
same,glycan array binding signal (z-score),[17],-0.194
same,glycan array binding signal (z-score),[18],-0.141
same,glycan array binding signal (z-score),[19],-0.03
same,glycan array binding signal (z-score),[20],-0.201
same,glycan array binding signal (z-score),Neu5Ac(a2-6)Gal,-0.175
same,glycan array binding signal (z-score),[21],-0.191
same,glycan array binding signal (z-score),Neu5Ac(a2-6)Gal(b1-4)Glc,-0.152
same,glycan array binding signal (z-score),[22],-0.201
same,glycan array binding signal (z-score),[23],-0.174
same,glycan array binding signal (z-score),[24],-0.125
same,glycan array binding signal (z-score),[25],-0.206
same,glycan array binding signal (z-score),[26],-0.139
same,glycan array binding signal (z-score),[27],-0.165
same,glycan array binding signal (z-score),[28],-0.112
same,glycan array binding signal (z-score),[29],-0.201
same,glycan array binding signal (z-score),[30],-0.174
same,glycan array binding signal (z-score),[31],-0.167
same,glycan array binding signal (z-score),[32],-0.238
same,glycan array binding signal (z-score),[33],-0.199
same,glycan array binding signal (z-score),[34],-0.139
same,glycan array binding signal (z-score),[35],-0.197
same,glycan array binding signal (z-score),[36],-0.151
same,glycan array binding signal (z-score),[37],-0.191
same,glycan array binding signal (z-score),[38],-0.133
same,glycan array binding signal (z-score),[39],-0.185
same,glycan array binding signal (z-score),[40],-0.173
same,glycan array binding signal (z-score),[41],-0.121
same,glycan array binding signal (z-score),[42],-0.182
same,glycan array binding signal (z-score),[43],-0.051
